Screen size: about 300,000 compounds; about 1,200 (0.4%) were called active. The shares of active, inactive and inconclusive entries below differ from those in the screen. The call rests on the fitted dose curve; in most records, active means well fitted inhibition curve with a large enough effect; inconclusive means small, poorly fitted or top-dose-only effect, or another doubt; inactive means no such curve, though single readings can be large or run the other way. Potencies beside an inconclusive call are fits to weak or partial responses and may not hold up.
Biological target: Lysosomal alpha-glucosidase (Homo sapiens) (UniProt P10253)
Assay: qHTS Assay for Inhibitors and Activators of Human alpha-Glucosidase Cleavage of Glycogen;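 on activity change, negative = inhibition: 0% = full enzyme reaction and -100% = no-enzyme basal signal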
Details: recombinant GAA, glycogen substrate, Amplex Red glucose oxidase fluorescence; activity change, negative = inhibition: at 76.4 µM (top of the series) unless noted
How it was run: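 qHTS, 1536-well; enzyme 4 nM final; cpd up to 77 uM; substrate bovine liver glycogen 30 ug; 50 mM citrate/phosphate pH 5.0, 0.01% Tween-20; 37 C, 40 min; Amplex Red detection 45 min RT; Hill fit → AC50.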
Potency means the concentration at half of the fitted maximal effect.

Row | SMILES | Potency | activity change, negative = inhibition
1 | COc1cc(/C=N/NC(=O)C2(O)c3ccccc3-c3ccccc32)ccc1O | inconclusive: 31.4 µM [inhibitor, single point] | 
2 | O=S(=O)(c1ccc(Br)s1)N1CCN(c2cccc(C(F)(F)F)c2)CC1 |  | inactive: -11.2% [at 76.3 µM]
3 | CC(=O)c1c(C)[nH]c(C(=O)Nc2ccc3c(c2)OCCO3)c1C |  | inconclusive: 26.6% [activator]
4 | COc1cc(C2Nc3ccccc3-c3cc(C)nn32)ccc1O (centres undefined) | inconclusive: 6.31 µM [inhibitor, full curve] | 
5 | COc1ccc(NC(=S)NNC(=O)c2ccccc2OC(F)F)cc1 | inconclusive: 35.5 µM [inhibitor, partial curve] | 
6 | O=C1c2ccccc2C(=O)C1c1ccc(Br)cc1 | inconclusive: 25.1 µM [inhibitor, single point] | 
7 | COc1cccc(NC(=O)NC2(C(F)(F)F)Oc3ccccc3O2)c1 | active: 8.91 µM | 
8 | COc1ccc(-c2csc(Nc3ncccc3C)n2)cc1OC | inconclusive: 28 µM [inhibitor, single point] | 
9 | Oc1ccc(/C=C/c2nc(-c3ccccc3O)n(-c3ccccc3)n2)c(O)c1 | inconclusive: 35.5 µM [inhibitor, partial curve] | 
10 | NNC(=S)Nc1cc(S(=O)(=O)N2CCOCC2)ccc1N1CCOCC1 | inconclusive: 19.8 µM [inhibitor, partial curve] | 
11 | CCOc1ccc(NC(=O)c2cc(=O)c3cc(CC)ccc3o2)cc1 |  | inactive: 1.39% [at 76.3 µM]
12 | COc1cc(C(c2c(C)[nH][nH]c2=O)c2c(C)[nH][nH]c2=O)cc([N+](=O)[O-])c1O | inconclusive: 10 µM [inhibitor, partial curve] | 
13 | COc1ccc(NC(=S)c2ccc3ccccc3n2)cc1 | inconclusive: 39.8 µM [inhibitor, single point] | 
14 | COC(=O)CC1c2cc(OC)c(OC)cc2CC(=O)c2cc(OC)c(OC)cc21 (centres undefined) | inconclusive: 19.8 µM [inhibitor, single point] | 
15 | COc1ccc(CCNc2oc(-c3ccco3)nc2C#N)cc1 | inconclusive: 50.1 µM [inhibitor, single point] | 
16 | COc1ccc(N2CCN(c3ccc([N+](=O)[O-])cc3Cl)CC2)cc1 |  | inactive: 9.13%
17 | O=C(CC1SC(=O)N(c2ccccc2)C1=O)Nc1ccc(Br)cc1 (centres undefined) | inconclusive: 22.4 µM [inhibitor, partial curve] | 
18 | O=c1cc(-c2ccc(O)cc2)oc2c(O)c(O)c(O)c(O)c12 | inconclusive: 17.8 µM [inhibitor, partial curve] | 
19 | Nc1nc(-c2ccccc2)cn1N |  | inactive: 24.6%
20 | N#Cc1nc(-c2cccs2)oc1NCc1ccc2c(c1)OCO2 | inconclusive: 24.9 µM [inhibitor, single point] | 
21 | C/C(=N\NC(=O)c1ccccn1)c1ccc(Cl)cc1 | inconclusive: 31.6 µM [inhibitor, single point] | 
22 | COc1cc2c(cc1OC)C(c1ccc(N(C)C)cc1)NCC2 (centres undefined) | inconclusive: 31.6 µM [inhibitor, single point] | 

Row | SMILES | Potency | activity change, negative = inhibition
23 | COc1cc(C2c3c(n[nH]c3C)C(=O)N2c2ccc(C)cc2)ccc1O (centres undefined) | inconclusive: 35.5 µM [inhibitor, partial curve] | 
24 | CCc1cc(C(=O)OC)c(NC(=O)C2CC(=O)NN2Cc2ccccc2)s1 (centres undefined) | inconclusive: 24.9 µM [inhibitor, single point] | 
25 | COCCNC(=S)NN(c1ccccc1)c1ccccc1 | inconclusive: 50.1 µM [inhibitor, single point] | 
26 | CCOC(=O)Cn1c(=O)oc2cc(S(=O)(=O)N3CCCc4ccccc43)ccc21 | inconclusive: 20 µM [inhibitor, partial curve, poor fit] | 
27 | O=C(c1c(Cl)cccc1Cl)N1CCN(c2cccc3[nH]ccc23)CC1 | inconclusive: 10 µM [inhibitor, partial curve] | 
28 | CCc1cccc(NC(=O)c2cc3c(=O)[nH]c4ccccc4c3n2C)c1 | inconclusive: 39.8 µM [inhibitor, partial curve] | 
29 | Cc1ccc(NC(=S)N2CCOCC2)cc1 |  | inactive: 4.66%
30 | Clc1ccc(Nc2c(-c3cccs3)nc3ccc(Cl)cn23)cc1 |  | inactive: -0.113% [at 76.3 µM]
31 | Cn1c(-c2ccc(Cl)cc2)cnc1NCc1cc2c(cc1[N+](=O)[O-])OCO2 | inconclusive: 31.6 µM [inhibitor, partial curve] | 
32 | O=C1c2c(O)cc(O)cc2O[C@H](c2ccc(O)c(O)c2)[C@@H]1O | active: 3.16 µM | 
33 | CCCSc1nc2c3c(sc2c(=O)[nH]1)CC(C)(CC)OC3 (centres undefined) | inconclusive: 7.94 µM [inhibitor, partial curve] | 
34 | COc1cc(-c2nc3ccccn3c2Nc2ccccc2C)ccc1O | inconclusive: 22.4 µM [inhibitor, partial curve] | 
35 | O=C(CN1C(=O)c2ccccc2C1=O)Nc1cccc2cccnc12 | inconclusive: 12.6 µM [inhibitor, full curve, poor fit] | 
36 | O=C(Nc1cccc(C(F)(F)F)c1)N1CCC(CN2CCCCCC2)CC1 | inconclusive: 11.2 µM [inhibitor, single point] | 
37 | O=C1CN(S(=O)(=O)c2ccc(F)cc2)CC(=O)N1CCc1ccccc1 | inconclusive: 39.5 µM [inhibitor, single point] | 
38 | Nc1n[nH]c(N)c1N=Nc1ccccc1 | inconclusive: 31.6 µM [inhibitor, partial curve] | 
39 | CC(/C=N/n1c(-c2cc(C)[nH]n2)n[nH]c1=S)=C\c1ccccc1 |  | inactive: -6.94%
40 | Cc1cc([N+](=O)[O-])nn1CC(=O)NNC(=S)Nc1ccc(Cl)cc1 | inconclusive: 39.5 µM [inhibitor, single point] | 
41 | O=C(Cn1c(=O)oc2ccccc21)Nc1ccc(F)cc1 |  | inactive: 9.72% [at 76.3 µM]
42 | COc1ccc(/C=N/Nc2nc(-c3cccc(S(=O)(=O)N4CCCC4)c3)cs2)cc1OC | inconclusive: 50.1 µM [inhibitor, single point] | 
43 | CCOC(=O)c1cc(CC)sc1N1C(=O)CC(Sc2ncccc2C(=O)O)C1=O (centres undefined) | inconclusive: 20 µM [inhibitor, partial curve] | 
44 | Cc1c(NC(=O)CN2CCN(c3ccc(O)cc3)CC2)c(=O)n(-c2ccccc2)n1C | active: 3.98 µM | 

Reference: PubChem BioAssay AID2100 (National Center for Advancing Translational Sciences (NCATS), 2009)
